# Experimental data taken from a collection of fitness landscapes (doi:10.1126/science.1257360).
# This is one part of the list.
# B1: PhoQ; a variant is named by its letters at X, in order, P23837 (parent)
# chain: MKKLLRLFFPLSLRVRFLLATAAVVLVLSLAYGMVALIGYSVSFDKTTFRLLRGESNLFYTLAKWENNKLHVELPENIDKQSPTMTLIYDENGQLLWAQRDVPWLMKMIQPDWLKSNGFHEIEADVNDTSLLLSGDHSIQQQLQEVREDDDDAEMTHSVAVNVYPATSRMPKLTIVVVDTIPVELKSSYMVWSWFIYVLSANLLLVIPLLWVAAWWSLRPIEALAKEVRELEEHNRELLNPATTRELTSLVRNLNRLLKSERERYDKYRTTLTDLTHSLKTPLXXLQXXLRSLRSEKMSVSDAEPVMLEQISRISQQIGYYLHRASMRGGTLLSRELHPVAPLLDNLTSALNKVYQRKGVNISLDISPEISFVGEQNDFVEVMGNVLDNACKYCLEFVEISARQTDEHLYIVVEDDGPGIPLSKREVIFDRGQRVDTLRPGQGVGLAVAREITEQYEGKIVAGESMLGGARMEVIFGRQHSAPKDE
# Variants of: B1
# Experiment: enrichment ratio after two sorts for PhoP signalling (ratio (wild type AVST 3.29)); higher = more functional
# Conditions: with PhoP (E. coli)
row,Variant,enrichment ratio
1,KYCI,≤ 0.25
2,QSAA,≤ 0.25
3,INGF,≤ 0.25
4,RYAI,≤ 0.25
5,DMVD,≤ 0.25
6,INYG,≤ 0.25
7,GRSA,≤ 0.25
8,VADN,≤ 0.25
9,MAYW,≤ 0.25
10,NLKH,≤ 0.25
11,IGQD,≤ 0.25
12,REID,≤ 0.25
13,IDGT,≤ 0.25
14,VLFL,≤ 0.25
15,TRHL,≤ 0.25
16,KKNT,≤ 0.25
17,HDYQ,≤ 0.25
18,TIET,≤ 0.25
19,WSPT,≤ 0.25
20,MKTM,≤ 0.25
21,VRKG,≤ 0.25

row,Variant,enrichment ratio
1,NPEV,≤ 0.25
2,VYML,≤ 0.25
3,WRAT,≤ 0.25
4,NCGS,≤ 0.25
5,LQAN,≤ 0.25
6,DLHF,≤ 0.25
7,ETIN,≤ 0.25
8,LDLK,≤ 0.25
9,VWPK,≤ 0.25
10,YTSS,≤ 0.25
11,ICHE,≤ 0.25
12,QIVE,≤ 0.25
13,KYAD,≤ 0.25
14,ANTR,≤ 0.25
15,PCTS,≤ 0.25
16,DPSA,≤ 0.25
17,WRNH,≤ 0.25
18,NQNT,≤ 0.25
19,GWSM,≤ 0.25
20,VYSG,≤ 0.25
21,DFNM,≤ 0.25

row,Variant,enrichment ratio
1,EQRS,≤ 0.25
2,YVYM,≤ 0.25
3,EIEL,≤ 0.25
4,HKDP,≤ 0.25
5,IVFN,≤ 0.25
6,KEVP,≤ 0.25
7,VPVY,≤ 0.25
8,RKNW,≤ 0.25
9,IHQH,≤ 0.25
10,NLYS,≤ 0.25
11,QHPM,≤ 0.25
12,QYMV,≤ 0.25
13,QIIK,≤ 0.25
14,PARM,≤ 0.25
15,FCCP,≤ 0.25
16,REIT,≤ 0.25
17,EDPN,≤ 0.25
18,LCCS,≤ 0.25
19,QYHI,0.38
20,LRSF,≤ 0.25
21,QISM,≤ 0.25

row,Variant,enrichment ratio
1,GASW,≤ 0.25
2,KGYP,≤ 0.25
3,DCLP,≤ 0.25
4,PWGH,≤ 0.25
5,IPFF,≤ 0.25
6,HMFY,≤ 0.25
7,AHIK,≤ 0.25
8,GEFD,≤ 0.25
9,PMCK,≤ 0.25
10,MPAV,≤ 0.25
11,MQTS,≤ 0.25
12,VDSM,≤ 0.25
13,LDQM,≤ 0.25
14,DPSK,≤ 0.25
15,HRDY,≤ 0.25
16,ICEI,≤ 0.25
17,KAQI,≤ 0.25
18,EMYE,≤ 0.25
19,FRCI,≤ 0.25
20,RNLV,≤ 0.25
21,DNYI,≤ 0.25
